Screen size: about 52,000 compounds; about 1,700 (3.3%) were called active. No stated cut-off is given here; in the data, active means survival mostly below about 52% (no sharp cut-off); inactive means mostly above about 56%. The list shows a part of the results.
test system: Wild type; experiment: S. aureus survival, RN4220 and DeltatarO strains – OD600, teichoic acid synthesis inhibitors, primary screen (AID 463173); details: S. aureus RN4220 wild type/DeltatarO growth, OD600, 18 h, active compounds read low, screened at 18.75 µg/mL (by protocol)

Structure (SMILES) | survival
COc1ccc(C2=C(C)C(N3CCC(C(=O)Nc4ccccc4F)CC3)=NS2(=O)=O)cc1 | inactive: 57%
Cc1c(C)n(Cc2ccc(F)cc2)c2ccc(C(=O)N3CCN(c4ccc(F)cc4)CC3)cc12 | inactive: 75%
O=C(COc1ccc(F)cc1)NCCCn1ccnc1 | inactive: 97%
CCOc1ccc2oc(=O)cc(CN3CCN(C(=O)c4ccc(OC)c(OC)c4)CC3)c2c1 | inactive: 88%
O=C(O)CC1OC(=O)c2ccccc21 (centres undefined) | inactive: 94%
O=C(C1CCN(c2ncnc3c2nc2n3CCCCC2)CC1)N1CCN(c2ccccc2F)CC1 | inactive: 82%
Cc1ccc2oc(-c3ccc(Cl)c(NC(=O)Cc4ccccc4)c3)nc2c1 | inactive: 96%
COc1ccccc1CCNC(=O)Cc1ccc(NC(=O)N2CCSc3ncccc32)cc1 | inactive: 87%
CCCNS(=O)(=O)c1cc(-c2nn3c(C)nnc3c3ccccc23)ccc1C | inactive: 78%
COc1ccc(CNC(=O)c2cc3c(=O)n(Cc4cccnc4)ccc3nc2C)cc1 | inactive: 32%
COc1ccccc1CNC(=O)c1cc2c(=O)oc3ccc(C)cc3c2s1 | inactive: 62%
CCc1ccc(-c2nn(CC(=O)NC3CCCCC3)c3c2cnc2ccc(F)cc23)cc1 | inactive: 68%
CC(=O)N1CCCc2cc(S(=O)(=O)N3CCCC(C(=O)NCc4ccccc4Cl)C3)ccc21 (centres undefined) | inactive: 80%
Cc1ccc(-n2c(=O)c3c4c(sc3n(Cc3cc(=O)n5cc(Cl)ccc5n3)c2=O)CCC4)cc1C | inactive: 142%
CCOC(=O)c1ccccc1NC(=O)CN(c1cccc(C)c1C)S(=O)(=O)c1ccccc1 | inactive: 118%
CN(C)S(=O)(=O)c1ccc(S(=O)(=O)N2CCCC(C(=O)NC(C)(C)C)C2)cc1 (centres undefined) | inactive: 99%
CC(C)(C)c1ccc(OCc2nc3ccccc3n2CCOc2ccccc2)cc1 | active: 7%
Cc1cccc(C)c1OCc1nc2c3cnn(-c4ccccc4F)c3ncn2n1 | inactive: 119%
CCOc1ccccc1NC(=O)C1CCN(S(=O)(=O)c2ccc3[nH]c(=O)oc3c2)CC1 | inactive: 67%
CC1CCc2c(cc(-c3ccccc3)n2-c2ccc(C(=O)NC(C)C)cc2)C1 (centres undefined) | inactive: 106%
CCc1cccc(OCC(=O)Nc2ccc(S(=O)(=O)Nc3ncccn3)cc2)c1 | inactive: 70%
Cc1cc(C)cc(NC(=O)Cc2csc(C)n2)c1 | inactive: 80%

Structure (SMILES) | survival
CC(=O)c1ccc(S(=O)(=O)N2CCn3cccc3C2c2ccccc2F)cc1 (centres undefined) | inactive: 85%
COc1cccc(NC(=O)CSc2nc3c([nH]c4ccccc43)c(=O)n2-c2cc(C)cc(C)c2)c1 | inactive: 85%
CC1=NN(C(=S)c2ccccc2)C(C)(O)C1 (centres undefined) | inactive: 109%
COc1ccc(-c2nc3ccccc3n3c(-c4cccc(C)c4)c4c(=O)n(C)c(=O)n(C)c4c23)cc1OC | inactive: 77%
CCC(C)NC(=O)c1c(C)oc2ncn(CC(C)C)c(=O)c12 (centres undefined) | inactive: 63%
O=C(CCS(=O)(=O)c1cc(Br)cc2c1N(C(=O)C1CC1)CC2)N1CCN(c2cccc(Cl)c2)CC1 | inactive: 82%
CCN(C1CCCCC1)S(=O)(=O)c1ccc(S(=O)(=O)NC2CC2)cc1 | inactive: 113%
CCC(=O)N1CCc2cc(S(=O)(=O)NC(C(=O)NCCc3ccc(OC)c(OC)c3)C(C)C)ccc21 (centres undefined) | inactive: 131%
Cc1cc(C)c(NC(=O)c2nc3ccccc3nc2N2CCCCC2)c(C)c1 | inactive: 73%
CCCCNC(=O)C1CCC(Cn2c(=O)c3sccc3n(Cc3ccccc3)c2=O)CC1 (centres undefined) | inactive: 78%
O=C(Cn1c(=O)n(CCc2ccccc2)c(=O)c2cccnc21)Nc1ccc(F)cc1 | inactive: 80%
Cc1cc(C(=O)N2CCN(c3ccccc3)CC2)c2c(C)nn(-c3cccc(F)c3)c2n1 | inactive: 63%
COc1cc(NC(=O)C2CCN(C(=O)c3sc4nc[nH]c(=O)c4c3C)CC2)cc(OC)c1OC | inactive: 112%
CCCCNC(=O)CSc1nc2cc3c(cc2c(=O)n1CCCC(=O)NCCc1ccc(OC)c(OC)c1)OCO3 | inactive: 129%
CC1=C(C(=O)OC2CCCC2)C(c2c(Cl)cccc2Cl)CC(=O)N1 (centres undefined) | inactive: 88%
Cc1ccc(N2C(=O)c3n[nH]c(C)c3C2c2ccc(Cl)cc2)cc1 (centres undefined) | inactive: 17%
Cc1ccc(NC(=O)Cn2nc(C(F)(F)F)c3c2CCCC3)cc1C | inactive: 64%
O=C(Cc1ccc(F)cc1)N/N=C/c1ccc(-c2ccc(Cl)c(C(=O)O)c2)o1 | inactive: 112%
CCOC(=O)c1[nH]c2c(c1Cc1ccccc1OC)C(=O)CC(c1ccc(OC)cc1)C2 (centres undefined) | inactive: 86%
Cc1ccc(CNC(=O)c2nn(-c3ccc(Cl)cc3)nc2CO)cc1 | inactive: 92%
Cc1ccccc1CSc1nnc2[nH]c(=O)cc(-c3ccccc3)n12 | inactive: 74%
CCc1ccc(-n2c(=O)c3c4c(sc3n(Cc3cc(=O)n5c(C)cccc5n3)c2=O)CCC4)cc1 | inactive: 131%
